# Measured values taken from the BET-seq Pho4 binding data (Le et al. 2018).
# The other results are listed elsewhere or left out. Values were computed here from the reads of four pooled replicates and scatter widely.
# Biological target: T1, Pho4 (S. cerevisiae) (UniProt P07270)
# T1 sequence: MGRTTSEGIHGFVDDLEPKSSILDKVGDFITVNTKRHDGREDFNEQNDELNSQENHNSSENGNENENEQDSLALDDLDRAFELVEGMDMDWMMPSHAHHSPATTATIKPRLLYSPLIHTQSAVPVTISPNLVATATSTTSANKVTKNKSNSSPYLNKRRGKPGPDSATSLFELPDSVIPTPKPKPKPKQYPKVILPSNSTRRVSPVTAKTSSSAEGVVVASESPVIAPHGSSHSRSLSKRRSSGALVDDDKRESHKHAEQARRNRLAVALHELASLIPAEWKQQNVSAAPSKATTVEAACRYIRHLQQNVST
# Test: relative binding free energy (BET-seq); higher = weaker binding
# Conditions: reference: library average
row,Sequence,relative binding free energy [kcal/mol]
1,GTAATCACGTGGGTGT,0.06
2,CTTGGCACGTGAGTTC,0.15
3,TTCATCACGTGTAGTT,0.22
4,GTTCTCACGTGGGAGA,0.24
5,TGGGGCACGTGGCGGG,-0.18
6,GTGGTCACGTGCAGAT,0.09
7,TATGGCACGTGTGCTG,0
8,TCTTTCACGTGTATGG,0.2
9,AGGATCACGTGCGGTT,0.27
10,TTAGGCACGTGAGTTT,0.1
11,AATTTCACGTGAGATT,0.32
12,CTTATCACGTGGGGAG,0.06
13,GAGTGCACGTGGGAGA,-0.08
14,AAGATCACGTGCGGGG,0.14
15,AGTTACACGTGTAGGT,0.12
16,TGTTACACGTGTTCTA,0.08
17,TGGCCCACGTGAGGTT,0.37
18,ATGAGCACGTGGTTAT,-0.12
19,TGAGTCACGTGAGCTT,0.39
20,AGTTTCACGTGCCGTT,0.21
21,TCGAGCACGTGGGGAT,-0.12
22,GAGGTCACGTGGTGTA,0.12
23,GGAATCACGTGATTGT,0.28
24,TCTCACACGTGGTGTT,0.06
25,GGGTGCACGTGGAATC,0.06

row,Sequence,relative binding free energy [kcal/mol]
1,AGTTTCACGTGATGAT,0.29
2,CGCGGCACGTGTGGTA,0.01
3,GCCGGCACGTGGGAGG,-0.22
4,ATGGTCACGTGAAGAA,0.42
5,TTTGGCACGTGAAAAT,0.1
6,TTATTCACGTGTCTGA,0.16
7,GTTAGCACGTGAGTGA,0.11
8,ATAGACACGTGTAGGT,0.12
9,GTTCTCACGTGGGCAT,0.16
10,ATCGTCACGTGAATGG,0.33
11,TGGTGCACGTGATTCA,0.07
12,AGTCACACGTGTATGT,0.03
13,TTTGACACGTGTAGGT,0.1
14,TGGGACACGTGATCGG,0.17
15,GGGGGCACGTGGATTA,0.03
16,TGAGTCACGTGTGGGC,0.16
17,TAGGGCACGTGTTAGG,-0.16
18,TGGTGCACGTGAACGT,0.3
19,TAGGTCACGTGTTCCT,0.08
20,ATGGGCACGTGGTAAG,-0.09
21,ATGAGCACGTGGTTCG,-0.11
22,GGGTCCACGTGTGCGG,0
23,CGAAGCACGTGAAGGG,0.22
24,ATTTACACGTGGGTGA,0.08
25,GCATACACGTGTTGTT,0.25

row,Sequence,relative binding free energy [kcal/mol]
1,GTGTCCACGTGGGTAA,-0.12
2,TAGTGCACGTGGCTTA,-0.18
3,TGCGTCACGTGTGACG,0.15
4,GGTTCCACGTGAAGTT,0.41
5,GGAGTCACGTGAATGG,0.25
6,TCTGTCACGTGAGTAG,0.27
7,TAATACACGTGGAGGA,0.01
8,TGGGGCACGTGGCGAA,-0.24
9,TGCGGCACGTGGTACT,-0.2
10,AGGTCCACGTGTTATG,0.04
11,TGTGTCACGTGGTCTG,0.16
12,TGGAACACGTGGAAGT,0.11
13,TATTCCACGTGGTATG,-0.06
14,CAAGTCACGTGATTTT,0.31
15,CTTTTCACGTGTTGAT,0.12
16,TTGTTCACGTGGCTGG,0.2
17,TTATTCACGTGTCCGT,0.23
18,AAATACACGTGGGGTC,0
19,CGTTTCACGTGTGGCT,0.2
20,GTCTTCACGTGTGCTT,0.31
21,TGAGGCACGTGTTGAC,-0.07
22,GATTTCACGTGGTCTG,0.24
23,GTTGACACGTGTAAGA,0.09
